According to PubChem BioAssay (NCATS):
Inconclusive results, whose numbers are uncertain, are shown with a selection of clear calls. Potencies of inconclusive entries are left out as doubtful fits. Active and inactive are the calls of the source. The call rests on the fitted dose curve; in most records, active means well fitted curve in the direction sought with a large enough effect; inconclusive means small, poorly fitted or top-dose-only effect, or another doubt; inactive means no such curve, though single readings can be large; an effect the other way counts as inactive or inconclusive.

Test system: not listed separately
Test: qHTS for Inhibitors of the vitamin D receptor (VDR): Hit Validation using a Texas Red Assay (AID 602201)
Settings: VDR coregulator binding, Texas Red fluorescence polarization, agonist-bound VDR ligand-binding domain; series mostly up to 57.1 µM; activity, negative = inhibition: at the top concentration
Summary of the method: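 Fluorescence polarization (Ex 595/Em 615 nm) of Texas Red (7 nM) with 1.5 uM VDR-LBD and LG19078 (final concentrations). Compounds were incubated for 2 hours at room temperature.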
Potency means the concentration at half of the fitted maximal effect; tags describe the fitted curve by direction and shape.

Compound	Potency
CCCCOc1ccc(CN2C(=O)C(=O)c3cc(Br)cc(C)c32)cc1OC	inconclusive [inhibitor, single point]
O=C(CCS(=O)(=O)c1nc(-c2cccs2)cc(C(F)(F)F)n1)Nc1ccc(Br)cc1	inconclusive [inhibitor, partial curve, poor fit]
COc1ccc(-c2cc(C(F)(F)F)nc(S(C)(=O)=O)n2)cc1	inconclusive [inhibitor, single point]

Target: Vitamin D3 receptor (Homo sapiens) (UniProt P11473)
Test: qHTS for Inhibitors of the vitamin D receptor (VDR): Hit Validation using a Beta-Lactamase Assay (AID 602202); on activity change, negative = inhibition: on the % scale 0 is the no-effect control and ±100 the full control effect
Settings: VDR beta-lactamase reporter cells, FRET ratio, cells co-treated with VDR agonist LG190178; series mostly up to 46.1 µM; activity change, negative = inhibition: at the top concentration
Summary of the method: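 Stably transfected HEK293 cells express a VDR–GAL4 DNA-binding-domain fusion driving a UAS beta-lactamase reporter, stimulated by agonist LG190178. Compounds were added 4 h after plating and incubated 18 h. A FRET beta-lactam substrate was then added for 2 h and cleaved substrate emission read at 447 nm.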

Chain of UniProt P11473 (P11473 whole entry, looked up): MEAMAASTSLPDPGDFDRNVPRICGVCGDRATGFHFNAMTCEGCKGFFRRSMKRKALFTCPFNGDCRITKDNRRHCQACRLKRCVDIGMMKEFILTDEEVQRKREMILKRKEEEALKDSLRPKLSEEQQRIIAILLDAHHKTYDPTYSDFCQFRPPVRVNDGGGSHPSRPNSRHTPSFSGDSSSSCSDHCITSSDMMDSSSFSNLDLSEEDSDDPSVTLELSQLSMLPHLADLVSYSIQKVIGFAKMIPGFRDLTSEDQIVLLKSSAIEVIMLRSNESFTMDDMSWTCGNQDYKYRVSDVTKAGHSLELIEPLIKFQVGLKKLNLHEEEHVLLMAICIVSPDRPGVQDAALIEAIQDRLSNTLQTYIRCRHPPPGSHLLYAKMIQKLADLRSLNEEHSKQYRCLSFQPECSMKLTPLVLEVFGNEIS

Compound	activity change, negative = inhibition	Potency
CCCCOc1ccc(CN2C(=O)C(=O)c3cc(Br)cc(C)c32)cc1OC	inactive: -26.1%	–
O=C(CCS(=O)(=O)c1nc(-c2cccs2)cc(C(F)(F)F)n1)Nc1ccc(Br)cc1	–	inconclusive [inhibitor, single point]
COc1ccc(-c2cc(C(F)(F)F)nc(S(C)(=O)=O)n2)cc1	–	inconclusive [inhibitor, single point]

Test system: NanoLuc luciferase (engineered Oplophorus gracilirostris luciferase)
Test: Biochemical coelenterazine-based NLuc counterscreen for small molecule modulators of PMP22 gene expression - Km assay (AID 1508639);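 on activity change, negative = inhibition: substrate at 15 µM coelenterazine with 5 min compound preincubation before enzyme addition; on the % scale 0 is the no-effect control and ±100 the full control effect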
Settings: secreted NLuc enzyme, coelenterazine luminescence, Km conditions; series mostly up to 57.5 µM; activity change, negative = inhibition: at the top concentration
Summary of the method: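 Compounds pre-incubate 5 min with coelenterazine (15 uM, PBS pH 7.4, Triton X and ascorbate) before NLuc-containing S16 conditioned medium is introduced; light output is imaged after 10 min protected from light at ambient temperature.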

Compound	Potency	activity change, negative = inhibition
O=C(CCS(=O)(=O)c1nc(-c2cccs2)cc(C(F)(F)F)n1)Nc1ccc(OC(F)(F)F)cc1	inconclusive [inhibitor, partial curve, poor fit]	–
Cc1ccc(OCCSc2nc3ccc(NC(=O)c4ccc5c(c4)OCO5)cc3s2)cc1	–	inactive: 0.937%
COc1ccc(-c2noc(CSc3nnc(-c4ccncc4)n3-c3ccc(C)c(C)c3)n2)cc1	inconclusive [inhibitor, partial curve, poor fit]	–
CCC(=O)N1CCc2cc(Br)cc(S(=O)(=O)N3CCCC(C(=O)NCc4cccc(OC)c4)C3)c21 (stereo unspecified)	–	inactive: 5.21%
O=C(NCCCN1CCN(c2ccc(F)cc2)CC1)c1cc2c(Cl)nc3ccccc3c2s1	–	inactive: -11.4%
CCN(CC)c1ccc(NC(=O)CCCN2C(=O)C(c3ccccc3)Oc3cccnc32)c(C)c1 (stereo unspecified)	inconclusive [inhibitor, full curve, poor fit]	–
Cc1nnc(N2CCCC(C(=O)Nc3ccccc3C(F)(F)F)C2)c2nn(-c3ccccc3)c(C)c12 (stereo unspecified)	–	inactive: -2.48%
Cc1c(Cl)cccc1N1C(N)=C(C#N)C(c2cc(CN3CCOCC3)cs2)C2=C1CCCC2=O (stereo unspecified)	inconclusive [inhibitor, single point]	–
COc1ccc(NC(=O)CCS(=O)(=O)c2nc(-c3cccs3)cc(C(F)(F)F)n2)cc1	inconclusive [inhibitor, partial curve]	–
CCOc1ccc(C(=O)Nc2ccc3nc(SCc4ccccc4)sc3c2)cc1	–	inactive: 2.35%
Cc1ccc(NC(=O)c2nc(S(=O)(=O)Cc3cccc(C)c3)ncc2Cl)cc1	inconclusive [inhibitor, full curve]	–
COc1ccc(NC(=O)c2ccc3c(=O)n4nc(Nc5ccccc5C)sc4nc3c2)cc1Cl	inconclusive [inhibitor, full curve]	–
CCCS(=O)(=O)c1ncc(Cl)c(C(=O)Nc2scc(-c3ccccc3)c2C(=O)OCC)n1	–	inactive: -0.943%
Cn1c(=O)c2c(nc(NCc3ccccc3)n2Cc2ccc(Cl)c(Cl)c2)n(C)c1=O	inconclusive [inhibitor, full curve, poor fit]	–
CCN1CCOC(=O)C1CC(=O)Nc1cccc(OC)c1 (stereo unspecified)	–	inactive: -1.46%
Cc1ccc(O)c(-c2n[nH]c3c2C(c2ccc(F)cc2)N(Cc2ccco2)C3=O)c1 (stereo unspecified)	inconclusive [inhibitor, partial curve]	–
CCCCOc1ccc(CN2C(=O)C(=O)c3cc(Br)cc(C)c32)cc1OC	–	inactive: 0.323%
CCCCn1c(=N)n(CCOc2ccccc2OC)c2ccccc21	–	inactive: 0.894%
COc1ccc(C2Sc3ccccc3NC3=C2C(=O)c2ccccc23)c(OC)c1OC (stereo unspecified)	inconclusive [inhibitor, partial curve]	–
CCN1CCN(c2ccc(NS(=O)(=O)c3c(C)nc4sccn4c3=O)cc2Cl)CC1	–	inactive: -0.554%
CCOC(=O)c1cc(NC(=O)c2ccccc2)c(=O)n2c1oc1ccc(Cl)cc12	–	inactive: 3.32%
O=C(NCc1ccccc1)c1cccc(Nc2nc3ccccc3n3nnnc23)c1	–	inactive: 1.76%
O=C(Nc1nc2ccc(F)cc2s1)c1nc(S(=O)(=O)Cc2ccccc2F)ncc1Cl	inconclusive [inhibitor, partial curve]	–
CCN(CC)S(=O)(=O)c1ccc2c(c1)N(CC(=O)NCCCN1CCN(c3cc(Cl)ccc3C)CC1)C(=O)CO2	–	inactive: -1.18%
COc1ccc(NC(=O)c2cc3c(s2)-c2c(C)cccc2OC3)cc1Cl	–	inactive: -0.602%
